# Laboratory results from PubChem BioAssay AID2451 (National Center for Advancing Translational Sciences (NCATS), 2010).
# Screen size: about 290,000 compounds; about 2,100 (0.72%) were called active. The inconclusive results got no clear call from the source; some entries with a clear call stand among them for comparison. Calls follow the shape of the dose curve; as a rule, active = well fitted inhibition curve with a large enough effect; inconclusive = small, poorly fitted or top-dose-only effect, or effect the other way; inactive = flat fitted curve, though single readings scatter. A potency beside an inconclusive call is a rough fit, not a confirmed value.
# Target: Fructose-bisphosphate aldolase (Giardia intestinalis (strain ATCC 50803 / WB clone C6)) (UniProt A8B2U2)
# UniProt A8B2U2, sequence (A8B2U2 whole entry, looked up): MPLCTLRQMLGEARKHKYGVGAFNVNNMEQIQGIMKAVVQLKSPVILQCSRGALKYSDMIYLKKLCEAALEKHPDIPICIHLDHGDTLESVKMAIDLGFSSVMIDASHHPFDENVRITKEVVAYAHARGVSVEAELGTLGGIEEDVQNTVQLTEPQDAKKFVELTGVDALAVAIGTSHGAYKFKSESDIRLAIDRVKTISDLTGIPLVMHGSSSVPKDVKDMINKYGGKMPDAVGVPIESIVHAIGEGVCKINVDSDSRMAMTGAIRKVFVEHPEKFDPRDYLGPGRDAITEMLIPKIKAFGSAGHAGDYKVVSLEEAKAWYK
# Experiment: qHTS Assay for Inhibitors of Fructose-1,6-bisphosphate Aldolase from Giardia Lamblia; also: nearly all actives have a fitted effect of over 55% in size
# Settings: purified Giardia FBPA; activity, negative = inhibition: at 59.6 µM (top of the series) unless noted
# Method in brief: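 40 nM FBPA preincubated 10 min at RT with compound (up to 57.5 uM final), then substrate plus GAPDH/TPI/NAD/arsenate coupling and diaphorase/resazurin added. Fluorescence read after 20 min at RT, 525/598 nm.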
# % is scaled to controls: 0 for no effect and ±100 for the full control effect; potency is read from the fitted curve at half-maximal effect; tags tell the direction and shape of the fitted curve.
Compound,Potency,"activity, negative = inhibition"
COc1ccc(OCC(O)Cn2c(Nc3cccc(C)c3)nc3c2c(=O)n(C)c(=O)n3C)cc1 (stereo not drawn),inactive,
N#Cc1c2c(c(=S)n(-c3ccccc3)c1N)CCCC2,"inconclusive: 9.98 µM [inhibitor, partial curve]",
COc1cc(C(C)=O)ccc1OCC(O)CNCC(O)c1ccccc1 (stereo not drawn),"inconclusive: 22.4 µM [inhibitor, partial curve]",
COC(=O)c1sc2nc(SCc3ccccc3C)n(N)c(=O)c2c1C,inactive,
Cc1cnc(NC(=O)CCc2ccccc2)s1,inactive,
O=C(CNCc1ccc(Cl)cc1)Nc1ccc(C(=O)N2CCCCCC2)cc1,"inconclusive: 17.8 µM [inhibitor, single point]",
O=C(Nc1nnc(S(=O)(=O)N2CCOCC2)s1)c1ccc(F)cc1,active: 15.8 µM,
Cc1c(F)cccc1NS(=O)(=O)c1ccc2c(c1)c(C)cc(=O)n2C,inactive,
O=C(CSCc1ccc([N+](=O)[O-])cc1)Nc1ccccc1C(=O)O,inactive,
CC(=O)Nc1ccc(S(=O)(=O)n2nc(C)cc2C)cc1,inactive,
O=C(CSc1n[nH]c(-c2ccccc2)n1)N1CCOCC1,"inconclusive: 28.2 µM [inhibitor, single point]",
Cc1cc(N=Nc2ccc(C)c(N=Nc3cc(C)c(N)cc3N)c2)c(N)cc1N,"inconclusive: 22.3 µM [inhibitor, partial curve]",
COc1ccc(CN2CCC(N3CC(C)OC(C)C3)CC2)c(OC)c1 (stereo not drawn),"inconclusive: 25.1 µM [inhibitor, partial curve]",
COC(=O)c1ccccc1N/C=C1\CCc2c(c(C)nn2-c2ccccn2)C1=O,"inconclusive: 5.61 µM [inhibitor, partial curve]",
CN1CC=C2C(C#N)=C(N)C(C#N)(C#N)C(CCc3ccccc3)C2C1 (stereo not drawn),"inconclusive: 28.2 µM [inhibitor, partial curve]",
O=C(O)c1cnn(-c2nc(-c3cccc(F)c3)cs2)c1C(F)(F)F,"inconclusive: 15.8 µM [activator, single point]",
COc1cccc2c1NC(C(=O)O)C1CC=CC21 (stereo not drawn),"inconclusive: 15.8 µM [inhibitor, partial curve]",
Brc1cccc(OCCCCn2cncn2)c1,active: 28.2 µM,
O=C(O)c1ccccc1Nc1cccc(C(F)(F)F)c1,"inconclusive: 15.8 µM [activator, partial curve]",
CN1CCN(CCCCOc2ccc(Br)cc2)CC1,"inconclusive: 17.8 µM [inhibitor, partial curve]",
N#CC1(c2ccccc2)CCC(=NO)CC1 (stereo not drawn),inactive,
COCCn1c(SCC(=O)c2ccc(Cl)cc2)nnc1C(C)C,"inconclusive: 31.6 µM [inhibitor, partial curve]",
COc1ccc(CCCO[C@@H](Cn2ccnc2)c2ccc(OC)cc2)cc1,inactive,
CN(C)/N=C/c1ccc(/C=N/NC(N)=S)o1,"inconclusive: 15.8 µM [inhibitor, partial curve]",

Compound,Potency,"activity, negative = inhibition"
C=CCOc1ccc(C2C(C(=O)c3ccco3)=C(O)C(=O)N2c2nnc(C)s2)cc1 (stereo not drawn),"inconclusive: 3.15 µM [inhibitor, full curve, poor fit]",
COc1cccc(NC(=O)c2nc3ncccn3n2)c1,inactive,
O=C(O)c1cc(N/N=C2/CC(c3ccccc3)Oc3ccccc32)ccc1Cl (stereo not drawn),inactive,
C=CCOc1cccc(C(=O)Nc2ncn[nH]2)c1,inactive,
COc1cc(C/C=C\c2ccccc2)c(OC)cc1O,"inconclusive: 2.81 µM [inhibitor, partial curve]",
Clc1cccc(OCCn2ccnc2)c1,active: 35.5 µM,
COc1ccc(-c2nc(CSCC(=O)N3CCN(c4cccc(C)c4)C(C)C3)c(C)o2)cc1OC (stereo not drawn),inactive,
COc1cc2c(cc1O)C[C@H]1c3c(cc(OC)c(O)c3-2)CCN1C,"inconclusive: 3.97 µM [inhibitor, full curve, poor fit]",
CCCCS(=O)(=O)N1CCc2nc(-c3ccccc3)c3c(c2C1)CO[C@@H](C)C3,,inactive: 9.09% [at 12.9 µM]
Cc1ccc(NC(=O)C2CCN(S(=O)(=O)c3cccs3)CC2)cc1,inactive,
O=[N+]([O-])c1ccc(N/N=C/c2ccc(O)c(O)c2O)c(S(=O)(=O)N2CCOCC2)c1,active: 9.98 µM,
CC(C)c1ccc(Nc2ncccc2C(=O)O)cc1,"inconclusive: 25.1 µM [activator, partial curve]",
Cc1ccc(S(=O)(=O)Nc2ccc(=O)n(Cc3ccc(Cl)c(Cl)c3)c2)cc1,"inconclusive: 5.61 µM [inhibitor, full curve]",
O=Cc1ccccc1OS(=O)(=O)c1ccccc1,"inconclusive: 19.9 µM [inhibitor, partial curve]",
CN(C)S(=O)(=O)c1cc(NC(=O)CN2CCCc3ccccc32)ccc1Cl,inactive,
COC(=O)c1ccc(-c2nc3cc(Cl)c(N)cc3s2)cc1,"inconclusive: 11.2 µM [inhibitor, partial curve]",
Cc1cccc(S(=O)(=O)Nc2ccc(C)c3c2OC(C)(C)C3)c1,"inconclusive: 19.9 µM [inhibitor, partial curve]",
COc1ccc(/C=C2\CCCC(C(=O)C(F)(F)F)=C2O)cc1OC,"inconclusive: 6.29 µM [inhibitor, full curve, poor fit]",
COc1ccc(-c2nnc(NC(=O)c3cc(Cl)ccc3Cl)o2)cc1,"inconclusive: 15.8 µM [activator, partial curve]",
O=C(COC(=O)c1ccc2c(c1)OCCO2)NCCC1=CCCCC1,inactive,
CCOc1ccc(-c2cc(CCCC(=O)NCc3cccnc3)no2)cc1,inactive,
COc1ccc(C(=O)N2CCN(Cc3cc(OC)ccc3OC)CC2)cc1,"inconclusive: 22.4 µM [inhibitor, partial curve]",
CC1(C)CC(=O)C2=C(C1)Nc1[nH]c(=S)[nH]c(=O)c1C2c1ccccc1 (stereo not drawn),"inconclusive: 4.46 µM [inhibitor, single point]",
NC(=O)C1=C[C@@H](c2ccc(C(F)(F)F)cc2)C[C@@H](OCCCCO)O1,"inconclusive: 15.8 µM [inhibitor, partial curve]",
